In experiment [1] the target is PF-7802-labelled proteins in ARPE-19 cells (Homo sapiens, UniProt O75643). Conditions: SNRNP200 U5 small nuclear ribonucleoprotein 200 kDa helicase (O75643).
Experiment [2] concerns the target PF-7802-labelled proteins in ARPE-19 cells (Homo sapiens, UniProt P60709).
For experiment [3], the target named is PF-7802-labelled proteins in ARPE-19 cells (Homo sapiens, UniProt P18085). Conditions: protein ARF4 ADP-ribosylation factor 4 (P18085).

“And” between values parts separate entries of the source, which are not always exact repeats. Equal values may be shown once.

Sequence of UniProt P18085 (P18085 whole entry): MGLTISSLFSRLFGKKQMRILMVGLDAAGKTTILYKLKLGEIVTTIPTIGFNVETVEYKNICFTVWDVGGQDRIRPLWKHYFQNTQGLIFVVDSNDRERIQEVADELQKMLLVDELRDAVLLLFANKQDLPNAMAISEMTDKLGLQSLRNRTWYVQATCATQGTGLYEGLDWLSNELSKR
Sequence of UniProt O75643 (O75643 whole entry): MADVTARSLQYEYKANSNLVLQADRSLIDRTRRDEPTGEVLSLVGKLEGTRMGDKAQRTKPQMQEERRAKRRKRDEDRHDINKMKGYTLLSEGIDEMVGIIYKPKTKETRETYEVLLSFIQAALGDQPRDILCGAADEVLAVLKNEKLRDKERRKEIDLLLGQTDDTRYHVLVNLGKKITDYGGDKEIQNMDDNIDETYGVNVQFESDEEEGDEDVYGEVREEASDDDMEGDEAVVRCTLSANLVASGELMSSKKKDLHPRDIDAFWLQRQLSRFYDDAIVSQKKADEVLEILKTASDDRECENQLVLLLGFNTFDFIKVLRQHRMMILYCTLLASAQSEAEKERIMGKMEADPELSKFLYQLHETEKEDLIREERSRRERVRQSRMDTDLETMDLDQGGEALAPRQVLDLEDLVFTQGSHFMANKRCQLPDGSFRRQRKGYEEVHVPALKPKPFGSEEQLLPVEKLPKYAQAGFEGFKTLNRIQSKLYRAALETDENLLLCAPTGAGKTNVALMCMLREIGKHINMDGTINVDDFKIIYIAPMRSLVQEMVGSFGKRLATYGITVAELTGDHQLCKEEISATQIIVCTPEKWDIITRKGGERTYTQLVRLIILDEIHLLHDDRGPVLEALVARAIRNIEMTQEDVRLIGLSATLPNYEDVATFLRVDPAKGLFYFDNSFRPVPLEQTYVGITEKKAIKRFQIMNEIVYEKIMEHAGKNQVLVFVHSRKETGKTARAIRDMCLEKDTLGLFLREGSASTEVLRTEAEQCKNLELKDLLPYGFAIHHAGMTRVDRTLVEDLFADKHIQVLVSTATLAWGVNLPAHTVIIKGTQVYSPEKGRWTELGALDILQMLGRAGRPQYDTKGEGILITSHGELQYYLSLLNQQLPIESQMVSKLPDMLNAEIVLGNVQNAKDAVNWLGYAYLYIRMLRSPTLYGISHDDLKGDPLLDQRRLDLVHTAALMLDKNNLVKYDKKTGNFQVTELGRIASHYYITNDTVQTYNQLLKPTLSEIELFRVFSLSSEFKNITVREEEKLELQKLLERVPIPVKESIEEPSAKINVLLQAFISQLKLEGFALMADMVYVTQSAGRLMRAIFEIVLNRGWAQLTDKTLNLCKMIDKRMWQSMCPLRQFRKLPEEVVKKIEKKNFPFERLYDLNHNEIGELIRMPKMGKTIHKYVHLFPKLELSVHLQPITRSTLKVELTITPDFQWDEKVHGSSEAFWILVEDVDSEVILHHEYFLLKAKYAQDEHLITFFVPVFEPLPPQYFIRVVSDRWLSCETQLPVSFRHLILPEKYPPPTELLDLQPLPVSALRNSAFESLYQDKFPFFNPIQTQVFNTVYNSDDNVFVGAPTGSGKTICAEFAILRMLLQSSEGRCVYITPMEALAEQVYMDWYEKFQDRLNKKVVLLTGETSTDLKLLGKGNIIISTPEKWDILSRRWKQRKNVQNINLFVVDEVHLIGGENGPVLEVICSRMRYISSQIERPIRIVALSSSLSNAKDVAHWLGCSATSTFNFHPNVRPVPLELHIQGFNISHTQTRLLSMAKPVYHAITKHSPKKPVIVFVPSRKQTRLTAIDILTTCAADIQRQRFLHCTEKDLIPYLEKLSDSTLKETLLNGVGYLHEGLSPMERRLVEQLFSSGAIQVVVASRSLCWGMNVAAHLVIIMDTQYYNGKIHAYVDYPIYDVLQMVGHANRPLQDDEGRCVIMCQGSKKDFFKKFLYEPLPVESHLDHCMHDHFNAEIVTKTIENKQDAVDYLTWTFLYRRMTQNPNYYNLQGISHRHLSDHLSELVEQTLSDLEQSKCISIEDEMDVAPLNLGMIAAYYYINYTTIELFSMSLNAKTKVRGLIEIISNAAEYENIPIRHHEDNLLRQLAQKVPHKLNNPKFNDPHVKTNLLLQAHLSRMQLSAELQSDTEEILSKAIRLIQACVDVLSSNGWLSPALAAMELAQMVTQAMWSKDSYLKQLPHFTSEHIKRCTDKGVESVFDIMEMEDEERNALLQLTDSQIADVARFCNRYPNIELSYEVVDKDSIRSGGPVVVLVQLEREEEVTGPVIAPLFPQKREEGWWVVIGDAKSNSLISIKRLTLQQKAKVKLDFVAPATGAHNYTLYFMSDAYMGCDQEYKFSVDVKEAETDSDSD

Regarding `CNC1CCN(C(=O)C[C@@H](Cc2ccccc2)C(=O)N[C@@H](CSC)C(=O)N[C@@H](CC2CCCCC2)[C@@H](O)C(=O)OC(C)C)CC1` [CP-108671, reference compound], the “Median SILAC Ratio (Heavy/Light)” value in experiment [1] was 1.228; in experiment [2] (protein ACTB Actin, cytoplasmic 1 (P60709)), 1.211 and 0.8007. Besides, the “SILAC ratio (DMSO/CP-108671)” value in experiment [2] (P60709 ACTB Actin, cytoplasmic 1) was determined as 0.85.

For the compound `Cc1cc([C@H]2C[C@H]3[C@@H](C)SC(N)=N[C@@]3(c3ccc(F)cc3F)CO2)on1` [PF-9283], the “Median SILAC Ratio (Heavy/Light)” value in experiment [3] was 1.4327 and 1.604.

(Values after article PMC5062570 (Nature Communications, 2016).)
